We go through 23 compounds from article PMC4336329 (PLoS ONE, 2015).

The structures appear in SMILES notation. Screen size: about 310,000 compounds; about 14,000 (4.5%) showed an effect of 50% or more. The effect is printed as a negative number. This is one part of the list.
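Note: peak tail current of the secondary pulse compared with the same well before compound.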

Sequence of human ether-à-go-go-related gene (hERG) potassium channel (Q12809 whole entry, looked up): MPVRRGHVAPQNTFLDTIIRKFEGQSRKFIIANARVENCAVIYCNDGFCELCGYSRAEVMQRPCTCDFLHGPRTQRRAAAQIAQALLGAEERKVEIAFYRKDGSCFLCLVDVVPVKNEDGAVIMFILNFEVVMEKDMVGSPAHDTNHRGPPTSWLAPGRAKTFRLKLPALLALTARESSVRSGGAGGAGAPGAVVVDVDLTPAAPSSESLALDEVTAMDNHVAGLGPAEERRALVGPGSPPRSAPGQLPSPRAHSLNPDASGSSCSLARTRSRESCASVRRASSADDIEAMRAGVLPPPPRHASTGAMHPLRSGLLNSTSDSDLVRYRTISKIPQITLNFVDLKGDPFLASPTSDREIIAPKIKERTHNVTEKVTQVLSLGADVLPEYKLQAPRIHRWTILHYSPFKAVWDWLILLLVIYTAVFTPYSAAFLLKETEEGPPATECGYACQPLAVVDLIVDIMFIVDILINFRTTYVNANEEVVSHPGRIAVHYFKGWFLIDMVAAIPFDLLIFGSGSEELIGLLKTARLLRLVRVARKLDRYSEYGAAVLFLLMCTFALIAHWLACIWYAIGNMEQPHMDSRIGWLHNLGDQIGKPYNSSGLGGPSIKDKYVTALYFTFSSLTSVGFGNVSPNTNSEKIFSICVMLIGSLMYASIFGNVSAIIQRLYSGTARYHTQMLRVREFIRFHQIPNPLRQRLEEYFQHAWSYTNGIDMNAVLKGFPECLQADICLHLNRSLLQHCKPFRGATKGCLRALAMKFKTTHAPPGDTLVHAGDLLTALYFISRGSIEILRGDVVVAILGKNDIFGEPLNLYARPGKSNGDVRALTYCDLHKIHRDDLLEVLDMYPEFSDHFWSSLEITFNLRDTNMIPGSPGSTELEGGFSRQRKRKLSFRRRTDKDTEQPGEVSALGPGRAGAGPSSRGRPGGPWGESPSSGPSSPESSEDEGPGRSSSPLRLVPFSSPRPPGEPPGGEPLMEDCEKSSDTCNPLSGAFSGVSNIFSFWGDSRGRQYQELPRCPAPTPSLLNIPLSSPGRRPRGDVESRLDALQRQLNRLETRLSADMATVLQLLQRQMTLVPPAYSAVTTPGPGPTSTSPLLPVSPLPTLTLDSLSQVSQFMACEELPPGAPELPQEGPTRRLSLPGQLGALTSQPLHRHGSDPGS

This assay concerns the target human ether-à-go-go-related gene (hERG) potassium channel (human, UniProt Q12809). As to the kind of experiment: primary screen, population patch clamp on CHO cells stably expressing hERG.
As for `CCOc1cc2[nH]c(=S)n(C3CC3)c(=O)c2cc1OCC`, the “hERG current change (%, negative = inhibition) at 10uM” value turned out to be 18.3%.

With `C=C1CCC2[C@](C)(CO[C@@H]3O[C@H](CO)[C@@H](O)[C@H](O)[C@H]3O)CCC[C@@]2(C)[C@@H]1CCC1=CCOC1=O` (some centres unmarked), the “hERG current change (%, negative = inhibition) at 10uM” value turned out to be 17%. The figure for `CC(C)(C)C(=O)N1CCC(O)(CS(=O)(=O)c2ccc(Cl)c(Cl)c2)CC1` is -5.3%; for `Cc1cccc(C(=O)Nc2ccnc(-c3ccncc3)n2)c1` it is -30.5%; for `CCC(=O)N1CCc2cc(Br)cc(S(=O)(=O)N3CCN(C(=O)c4ccco4)CC3)c21` it is 5.06%. The figure for `COc1ccccc1CN1C(=O)CN(C2CCCCCC2)C(=O)C1c1ccc(F)cc1` (centres unmarked) is -37.7%; for `O=C(CCN1CCN(c2ccccc2)CC1)N/N=C/c1ccccc1OC(F)F` it is -30.9%; for `Fc1ccc(NC(=S)NCCc2ccccn2)cc1` it is 7.88%. Then `COc1cccc(C2CN(c3ccc(F)cc3F)N=C2c2cccs2)c1OC` (centres unmarked), with 21.5%. Take `COc1ccccc1C(CNC(=O)c1cccc(S(=O)(=O)Nc2ccc(F)cc2)c1)N(C)C` (centres unmarked): the “hERG current change (%, negative = inhibition) at 10uM” value is -46.2%. As for `Cc1cc(C)cc(NC(=O)NCc2c(-c3ccccc3)noc2C)c1`, the “hERG current change (%, negative = inhibition) at 10uM” value was found to be 16%. The figure for `COc1cc(NC(=O)c2ccc([N+](=O)[O-])cc2)ccc1NC(=O)C(C)C` is 3.58%; for `CCc1ccc(NC(=O)c2cc(C)no2)cc1` it is -22.5%. Then `CCOc1ccc(-c2c(=O)n(OCc3ccccc3Br)c3ccccc3[n+]2[O-])c(OCC)c1`, with 4.53%; and `COc1cccc(-n2nnnc2SCC(=O)NCc2ccco2)c1`, with -2.06%; and `CC1Cc2ccccc2N1C(=O)C12CCC(C)(C(=O)C1)C2(C)C` (centres unmarked), with 11.1%. For the compound `Cc1cc(C(F)F)n2nc(C(=O)Nc3ccc(F)cc3F)nc2n1`, the “hERG current change (%, negative = inhibition) at 10uM” value was -2.95%. The figure for `O=C(c1ccco1)N1CCN(c2c(-c3ccccc3)c3cc(Cl)ccc3[nH]c2=O)CC1` is 1.69%; for `CSc1cccc(NC(=O)c2nnn(CC(=O)Nc3cc(C)cc(C)c3)c2N)c1` it is 14.9%.

For the compound `Cc1cc(C)cc(NC(=O)c2cccc(NC3=NC4CS(=O)(=O)CC4S3)c2)c1` (centres unmarked), the “hERG current change (%, negative = inhibition) at 10uM” value was determined as 19.6%.

`COCCCn1c2nc3ccccc3nc2c2c(=O)n(CC3CCCO3)cnc21` (centres unmarked): the “hERG current change (%, negative = inhibition) at 10uM” value is given as -44.1%. In the case of `CCCc1cc(-c2[nH]ncc2-c2ccc(C(=O)OCC)o2)c(O)cc1O`, the “hERG current change (%, negative = inhibition) at 10uM” value came out at 1.39%. With `C/C(=N\NC(=O)c1c(Cl)cnn1C)c1ccc(NC(=O)c2ccc(Br)o2)cc1`, the “hERG current change (%, negative = inhibition) at 10uM” value is given as -0.731%.
